Several values for one entry are separate records, joined by “and”; a condition that tells them apart may be missing. Equal values may be shown once.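 1) Cells in 96-well plates. 2) Compound, 48 h, 5 concentrations. 3) Linear interpolation between surrounding doses. 4) Unreached endpoint = highest concentration. GI50 = concentration required for 50% inhibition of growth. TGI: concentration producing complete growth inhibition.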
Each compound was assayed on NCI-H322M lung (assay: growth of human tumour cells (NCI), 48 h).

Compared with `O=C1Nc2ccccc2/C1=C\c1c(-c2ccccc2)nc2sccn12`, `O=C(CCCn1c2c(sc3ccccc32)c(=O)n2nnc(-c3ccccc3)c12)NCCc1cnc[nH]1` is 2.2-fold lower in GI50: 4.97 µM for the first, 2.21 µM for the second.

Compared with `C[C@@H](N)COc1ccc(-c2cnc3ccc(N[C@H](C)c4cccc(F)c4)nn23)cc1`, `Oc1c(C(Nc2ccccn2)c2cccc(Oc3ccccc3)c2)ccc2cccnc12` (stereo not given) is 6.1-fold lower in GI50: 3.39 µM for the first, 0.554 µM for the second.

Going from `Cn1cc(C2=C(c3c4n(c5ccccc35)CCNC4)C(=O)NC2=O)c2ccccc21` to `Cc1ccccc1C1=C(c2cn(C)c3ccccc23)C(=O)NC1=O`, the GI50 rises from 12.2 µM to over 25 µM.

`CNS(=O)(=O)OCC1OC(n2cnc3cncnc32)C(O)C1O` (stereo not given) and `CS(=O)(=O)N1CCC(n2c(=O)c(Oc3ccc(F)cc3F)cc3cnc(NC4CCOCC4)nc32)CC1` cannot be ordered by GI50: over 100 µM for the first, over 25 µM for the second.

First: CN1CCN(C(=O)[C@@]2(C)CC[C@]3(C)CC[C@]4(C)C(=CC[C@@H]5[C@@]6(C)CCC(=O)NC(C)(C)[C@@H]6CC[C@]54C)[C@@H]3C2)CC1
Second: COC1=CC(c2ccc[nH]2)=N/C1=C\c1[nH]c(C)c(C(=O)CCC(=O)Oc2ccc3c(c2)CCC2C3CC[C@]3(C)[C@@H](O)CC[C@@H]23)c1C (stereo not given in full)
The GI50 of the first is 3.5-fold lower: 1.76 µM for the first, 6.17 µM for the second.

First: CCN1CCC(CC(=O)Nc2n[nH]c3nnc(-c4cccc(F)c4F)cc23)CC1
Second: CN1CCN(Cc2ccc(NC(=O)c3cncc(C#Cc4c(N)ncc5ccc(C#N)cc45)c3)cc2C(F)(F)F)CC1
The GI50 of the first is higher: over 25 µM for the first, 1.09 µM for the second.

Going from `O=C(CN1CCN(Cc2ccccc2Cl)CC1)NC1CC(=O)c2c(Br)sc(Br)c21` (stereo not given) to `COc1ccc2c(c1)N(Cc1ccc(Cl)cc1)CCC2N1CCCC1=O` (stereo not given), the GI50 falls from 19.8 µM to 4.05 µM (4.9-fold).

Going from `CCCCCCCCCCCCCC[n+]1ccccc1` to `CCCCCCC1N=C(N)N=C(N)N1c1cccc(Cl)c1` (stereo not given), the GI50 falls from 1.93 µM to 0.236 µM (8.2-fold).

First: N#Cc1c(NCc2ccccc2)nc(NCc2ccccc2)c(C#N)c1-c1ccc(Cl)cc1
Second: CN1CC=C(c2cc(NC(=O)Nc3ccc(Oc4ccnc(NC(=O)C5CC5)c4)c(F)c3)cc(C(F)(F)F)c2)CC1
The GI50 of the first is higher: over 100 µM for the first, 0.259 µM for the second.

Going from `OCc1ccc(-c2csc(-c3ccc(CO)o3)c2)o1` to `C/C(=N\NC(=S)N1CCN(c2ccccn2)CC1)c1ccccn1`, the GI50 falls from 19.6 µM to 0.0707 µM (280-fold).

Going from `O=C1Nc2ccccc2/C1=C\c1c(-c2ccccc2)nc2sccn12` to `O=C(CCCn1c2c(sc3ccccc32)c(=O)n2nnc(-c3ccccc3)c12)NCCc1cnc[nH]1`, the TGI falls from 16.8 µM to 7.87 µM (2.1-fold).

`Fc1cc(F)c(F)c(S)c1F` and `CCN1CCC(CC(=O)Nc2n[nH]c3nnc(-c4cccc(F)c4F)cc23)CC1` cannot be ordered by TGI: over 100 µM for the first, over 25 µM for the second.

`C[C@@H](N)COc1ccc(-c2cnc3ccc(N[C@H](C)c4cccc(F)c4)nn23)cc1` and `Oc1c(C(Nc2ccccn2)c2cccc(Oc3ccccc3)c2)ccc2cccnc12` (stereo not given) are within 1.5-fold of each other in TGI: 14.1 µM for the first, 19.2 µM for the second.

`C/C(CCn1[nH]c(=O)ccc1=O)=N\NC(=O)C(N)=O` and `COC(=O)Oc1nn(C(=O)OC)c(=O)c2ccccc12` cannot be ordered by TGI: over 100 µM for the first, over 100 µM for the second.

`Clc1ccc(CCNC2(c3cc4ccccc4s3)CCCCC2)cc1Cl` and `O=C(CCC(=O)Nc1ccc(Cl)c(Cl)c1)CC(=O)c1ccc2ccccc2c1` cannot be ordered by TGI: over 100 µM for the first, over 100 µM for the second.

Going from `O=P(O)(O)c1ccc(-c2ccc(I)cc2)cc1` to `CN(C)CCNC(=O)c1cccc2ccc(-c3ccc(Br)cc3)nc12`, the TGI falls from over 100 µM to 12.1 µM.

`COC(=O)[C@H]1COC(=S)N1C(=O)[C@@H](C)[C@H](O)C(C)C` and `COC(=O)C1=COC2OC3C(C(C)O)C(=O)OC34C=CC1C24` (stereo not given) cannot be ordered by TGI: over 100 µM for the first, over 100 µM for the second.

`COc1ccc(-n2c(SC(CN3CCOCC3)CN3CCCC3=O)nc3ccccc3c2=O)cc1` (stereo not given) and `COc1ccc2c(c1)N(Cc1ccc(Cl)cc1)CCC2N1CCCC1=O` (stereo not given) cannot be ordered by TGI: over 100 µM for the first, over 100 µM for the second.

`CN(C)Cc1c(O)ccc2c1c1c(n2C)C(=O)c2ccccc2C1=O` and `Cc1ccccc1C1=C(c2cn(C)c3ccccc23)C(=O)NC1=O` cannot be ordered by TGI: 49.4 µM for the first, over 25 µM for the second.

`Cn1cc(C2=C(c3c4n(c5ccccc35)CCNC4)C(=O)NC2=O)c2ccccc21` and `COc1cccc2c1NC(=O)Cc1c-2[nH]c2ccccc12` cannot be ordered by TGI: over 25 µM for the first, over 100 µM for the second.

`N[C@H]1c2c(Br)sc(Br)c2C(=O)[C@H]1O` and `O=C(CN1CCN(Cc2ccccc2Cl)CC1)NC1CC(=O)c2c(Br)sc(Br)c21` (stereo not given) are within 1.5-fold of each other in TGI: 38 µM for the first, 35.3 µM for the second.

`COC(=O)C1CSC(c2csc(CCN)n2)=N1` (stereo not given) and `Nc1nc(Cl)cc(OCC2(CO)CCCC2)n1` cannot be ordered by TGI: over 100 µM for the first, over 100 µM for the second.

`CC(C)NC(=O)OCc1c(COC(=O)NC(C)C)c(-c2ccc[n+](COC(=O)Cc3ccccc3)c2)n2c1CCC2` and `CC1=NN(C(=O)Cc2ccccc2)C(=O)/C1=C\c1ccc([N+](=O)[O-])cc1` cannot be ordered by TGI: over 100 µM for the first, over 100 µM for the second.

`CNS(=O)(=O)OCC1OC(n2cnc3cncnc32)C(O)C1O` (stereo not given) and `CS(=O)(=O)N1CCC(n2c(=O)c(Oc3ccc(F)cc3F)cc3cnc(NC4CCOCC4)nc32)CC1` cannot be ordered by TGI: over 100 µM for the first, over 25 µM for the second.

First: O=c1[nH]c2ccccc2c(O)c1Cc1ccccc1
Second: O=Cc1cccc2ccc3ccccc3c12
The TGI of the first is higher: over 100 µM for the first, 56.1 µM for the second.

First: CN1CCN(C(=O)[C@@]2(C)CC[C@]3(C)CC[C@]4(C)C(=CC[C@@H]5[C@@]6(C)CCC(=O)NC(C)(C)[C@@H]6CC[C@]54C)[C@@H]3C2)CC1
Second: COc1ccc2c(c1)CC[C@@H]1C2CC[C@]2(C)C(=O)N(CCN(C)C)C(=O)CC12 (stereo not given in full)
The TGI of the first is lower: 3.58 µM for the first, over 100 µM for the second.

First: O=C1/C(=C/c2ccc(O)cc2)CCCC1CN1CCCCC1 (stereo not given)
Second: Oc1c(CN2CCCC2)ccc2cccnc12
The TGI of the first is lower: 31.2 µM for the first, over 100 µM for the second.

`CC1(C)OC[C@H](C(=N)OCc2ccccc2)O1` and `CC(=O)OCC12CN(C#N)C3C4COC(CC41)C1(C(=O)N(C)c4ccccc41)C32` (stereo not given) cannot be ordered by TGI: over 100 µM for the first, over 100 µM for the second.

`CN1CCN(Cc2ccc(NC(=O)c3cncc(C#Cc4c(N)ncc5ccc(C#N)cc45)c3)cc2C(F)(F)F)CC1` and `CN1CC=C(c2cc(NC(=O)Nc3ccc(Oc4ccnc(NC(=O)C5CC5)c4)c(F)c3)cc(C(F)(F)F)c2)CC1` are within 1.5-fold of each other in TGI: 2.58 µM for the first, 2.72 µM for the second.

`COC(=O)CN(CC(=O)NCCCBr)C1CCCCC1N(CC(=O)OC)CC(=O)OC` (stereo not given) and `COC1=CC(c2ccc[nH]2)=N/C1=C\c1[nH]c(C)c(C(=O)CCC(=O)Oc2ccc3c(c2)CCC2C3CC[C@]3(C)[C@@H](O)CC[C@@H]23)c1C` (stereo not given in full) cannot be ordered by TGI: over 100 µM for the first, over 100 µM for the second.

Compared with `CCCCCCCCCCCCCC[n+]1ccccc1`, `CCCCCCCCCCNCCSSCc1ccc(Cl)cc1` is 2.1-fold higher in TGI: 4.62 µM for the first, 9.8 µM for the second.

`CN(C)CN1CSC(=S)N(CN(C)C)C1` and `Cn1cnc(N2CCCC2)c(C#N)c1=S` cannot be ordered by TGI: over 100 µM for the first, over 100 µM for the second.

`COC(C/C(=C/CO[Si](C(C)C)(C(C)C)C(C)C)C(=O)N(C(=O)OC(C)(C)C)c1ccccc1I)OC` and `CC(C)OP(=S)(NC(=S)c1ccccc1)OC(C)C` cannot be ordered by TGI: over 100 µM for the first, over 100 µM for the second.

First: Nn1c(Nc2ccc(S(N)(=O)=O)cc2)nnc(/C=C/c2c(O)ccc3ccccc23)c1=O
Second: Cc1cc(=O)[nH]c(CNC(=O)c2ccc3ccccc3c2)n1
The TGI of the first is lower: 46.7 µM for the first, over 100 µM for the second.

`CCOC(=O)c1[nH]cc(C)c1-c1cccn1-c1ccc(Cl)cc1[N+](=O)[O-]` and `CCOC(=O)c1nc2ccc(OC)cc2c2c1Cc1ccccc1-2` cannot be ordered by TGI: over 100 µM for the first, over 100 µM for the second.

`COC(=O)Nc1nc2ccc(S(=O)(=O)Nc3ccccn3)cc2[nH]1` and `CCc1ccccc1NC(=O)C(=O)C(C#N)c1ccccc1Cl` (stereo not given) cannot be ordered by TGI: over 100 µM for the first, over 100 µM for the second.

First: COc1cc(C2S/C(=C/c3ccccc3)C(=O)N2Cc2ccccc2)cc(OC)c1OC (stereo not given)
Second: COc1cc(C2c3cc4c(cc3OC(NNc3ccccc3)C2C)OCO4)cc(OC)c1OC (stereo not given)
The TGI of the first is higher: over 100 µM for the first, 35.7 µM for the second.

`Nc1nc(NCCOCP(=O)(O)O)c([N+](=O)[O-])c(=O)[nH]1` and `O=[N+]([O-])c1cc(-c2nc(=S)[nH][nH]2)ccc1O` cannot be ordered by TGI: over 100 µM for the first, over 100 µM for the second.

Going from `N#CC1C[C@@H]2CC3(CCC2CN1C(=O)c1ccccc1)OCCO3` (stereo not given in full) to `C/C(=N\NC(=S)N1CCN(c2ccccn2)CC1)c1ccccn1`, the TGI falls from over 100 µM to 14.4 µM.

`N#Cc1c(NCc2ccccc2)nc(NCc2ccccc2)c(C#N)c1-c1ccc(Cl)cc1` and `O=C1c2ccccc2C(=O)N1n1c(Cc2ccc(Cl)cc2)n[nH]c1=O` cannot be ordered by TGI: over 100 µM for the first, over 100 µM for the second.

First: OCc1ccc(-c2csc(-c3ccc(CO)o3)c2)o1
Second: O=c1ccc2ccc(CBr)cc2o1
The TGI of the first is higher: over 100 µM for the first, 27.6 µM for the second.

`O=C(CCBr)N1CCN(C(=O)CCBr)CC1` and `N#CC(C#N)=CNCCN1CCN(C=C(C#N)C#N)CC1` cannot be ordered by TGI: 289 µM for the first, over 100 µM for the second.

`Cc1cc2nc3c(C#N)c4c(c(Nc5ccc(F)cc5)n3c2cc1C)CCC4` and `CCOC(=O)c1c(NS(=O)(=O)c2ccc(C)cc2)sc2c1CCCC2` cannot be ordered by TGI: over 100 µM for the first, over 100 µM for the second.

`Cc1ccc(/C=C/C(=O)Oc2ccc(/C=C3\CCC/C(=C\c4ccc(OC(=O)/C=C/c5ccc(C)cc5)cc4)C3=O)cc2)cc1` and `Cc1cc(=O)oc2cc(OCCCOc3ccc4c(C)cc(=O)oc4c3)ccc12` cannot be ordered by TGI: over 100 µM for the first, over 100 µM for the second.

Compared with `CCCCCCC1N=C(N)N=C(N)N1c1cccc(Cl)c1` (stereo not given), `Cn1c(-c2ccc[se]2)ccc1-c1ccc(C=O)[se]1` is higher in TGI: 36 µM for the first, over 100 µM for the second.

`N#CC(C#N)=NNc1ccc2cn[nH]c2c1` and `[O-]/N=[N+](/[O-])C1CCCCC1=[N+]1CCOCC1` (stereo not given) cannot be ordered by TGI: over 100 µM for the first, over 100 µM for the second.

For `COc1cc2c(c(O)c1Cl)C(=O)c1c(O)cc(C[C@H](C)O)cc1[C@H]2[C@H]1c2cc(C[C@H](C)O)cc(O)c2C(=O)c2c1cc(OC)c(Cl)c2O`, the TGI was 75 µM and > 100 µM.
For `Cc1ccc(F)c(NC(=O)Nc2ccc(-c3cccc4[nH]nc(N)c34)cc2)c1`, the TGI was 12.7 µM and > 10 µM.

For `Cc1ccc(F)c(NC(=O)Nc2ccc(-c3cccc4[nH]nc(N)c34)cc2)c1`, the GI50 was 3.34 µM and 3.02 µM.

Source: PubChem BioAssay (NCI)
